Results published in publication PMC4336329 (PLoS ONE, 2015).
The whole screen tested about 310,000 compounds, of which about 2,200 (0.71%) showed an effect of 50% or more. Effects have a minus sign here. The list shows a part of the results.

What follows are compounds tested against human ether-à-go-go-related gene (hERG) potassium channel (human, UniProt Q12809) (assay: primary screen, population patch clamp on CHO cells stably expressing hERG).
Sequence of human ether-à-go-go-related gene (hERG) potassium channel (Q12809 whole entry, looked up): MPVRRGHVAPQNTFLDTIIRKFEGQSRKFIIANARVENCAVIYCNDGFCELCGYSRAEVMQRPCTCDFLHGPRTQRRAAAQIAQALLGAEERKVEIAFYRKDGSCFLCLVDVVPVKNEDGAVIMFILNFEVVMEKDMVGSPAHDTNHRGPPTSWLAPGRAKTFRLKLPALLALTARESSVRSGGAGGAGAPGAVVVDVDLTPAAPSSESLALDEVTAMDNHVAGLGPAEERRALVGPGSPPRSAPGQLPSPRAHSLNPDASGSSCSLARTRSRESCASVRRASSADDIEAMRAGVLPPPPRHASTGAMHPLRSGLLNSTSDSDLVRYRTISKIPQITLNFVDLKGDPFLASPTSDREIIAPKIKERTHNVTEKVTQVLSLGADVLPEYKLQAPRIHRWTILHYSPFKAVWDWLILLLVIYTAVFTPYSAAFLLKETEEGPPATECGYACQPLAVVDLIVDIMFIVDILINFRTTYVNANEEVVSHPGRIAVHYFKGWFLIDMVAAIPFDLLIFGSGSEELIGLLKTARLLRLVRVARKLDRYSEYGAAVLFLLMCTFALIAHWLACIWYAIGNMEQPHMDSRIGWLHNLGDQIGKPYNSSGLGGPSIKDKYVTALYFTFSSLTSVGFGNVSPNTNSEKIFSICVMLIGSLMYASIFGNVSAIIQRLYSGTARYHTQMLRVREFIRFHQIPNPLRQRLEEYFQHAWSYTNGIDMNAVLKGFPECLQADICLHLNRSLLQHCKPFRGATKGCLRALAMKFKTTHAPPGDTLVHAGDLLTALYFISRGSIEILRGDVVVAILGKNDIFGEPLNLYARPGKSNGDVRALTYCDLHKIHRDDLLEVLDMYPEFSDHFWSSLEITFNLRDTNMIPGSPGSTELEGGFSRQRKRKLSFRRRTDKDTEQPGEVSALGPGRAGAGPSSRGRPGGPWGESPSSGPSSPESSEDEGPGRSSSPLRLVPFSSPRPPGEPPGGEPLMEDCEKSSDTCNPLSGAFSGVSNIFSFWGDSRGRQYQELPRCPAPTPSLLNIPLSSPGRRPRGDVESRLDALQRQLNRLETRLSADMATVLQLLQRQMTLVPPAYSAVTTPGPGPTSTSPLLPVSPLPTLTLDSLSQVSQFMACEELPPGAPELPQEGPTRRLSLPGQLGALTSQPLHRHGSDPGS

Row | Structure (SMILES) | hERG current change (%, negative = inhibition) at 1uM [%]
1 | Cc1ccc(NC(=O)C(C)N2C(=O)c3ccccc3C2=O)cc1 (centres unmarked) | 11
2 | CCOc1ccccc1-c1nc(CN2CCCN(C(=O)c3ccco3)CC2)c(C)o1 | 15.3
3 | Cc1ccc(C(=O)N/C(=C/c2cccs2)C(=O)NCCc2c[nH]c3ccccc23)cc1 | -0.996
4 | CCN(CC)CCCOC(=O)C(OC)(c1ccccc1)c1ccccc1.Cl | -2.73
5 | COc1ccccc1C(=O)NCC(=O)N/N=C/c1ccncc1 | 7.02
6 | CC(=O)c1cccc(OCC(=O)N2CCN(c3ccc(C(F)(F)F)cn3)CC2)c1 | 1.99
7 | COc1ccccc1CNC(=O)C1CCN(S(=O)(=O)c2c(C)noc2C)CC1 | 9.73
8 | CCOc1ccc2ccccc2c1/C=N/n1cncn1 | -3.94
9 | CCCc1nc2ccc(NC(=O)NCCC(=O)OCC)cc2c(=O)n1Cc1ccc(Cl)cc1 | 10.3
10 | CS(=O)(=O)c1ccc(N2CCOCC2)c(S(C)(=O)=O)c1 | -4.75
11 | COc1cccc(CNS(=O)(=O)c2c(C)[nH]c(C)c2C(=O)N2CCCC2)c1 | 4.4
12 | Cc1nc2ccc(S(=O)(=O)NC(C(=O)N3CCCCCC3)C(C)C)cc2s1 (centres unmarked) | 3.77
13 | O=C(COC(=O)Cc1cccs1)Nc1ccc(F)c(F)c1F | 18.8
14 | CCOC(=O)c1cc(C#N)c(Oc2ccccc2OC)nc1-c1ccccc1 | 17
15 | CCCC(C(=O)NCc1ccccc1)N(C(=O)Cn1nnc(-c2cccs2)n1)c1ccc2c(c1)OCCO2 (centres unmarked) | 19.2
16 | CCCC(c1nnnn1CCC(C)C)N1CCC(C(N)=O)CC1.Cl (centres unmarked) | 6.94
17 | Cc1cccc(Nc2nc(N)c([N+](=O)[O-])c(NCCO)n2)c1 | -3.85
18 | COc1ccc(-c2nnc(SCc3nnc(-c4ccccc4)o3)n2-c2ccccc2)cc1 | 0.184
19 | CCCN1CCN(CCCNC(=S)Nc2ccc3nc(N4CCN(CC)CC4)cc(C)c3c2)CC1 | 13.3
20 | Cc1ccc(C(=O)n2nnc3ccccc32)cc1[N+](=O)[O-] | 18
21 | O=C(COc1ccccc1F)Nc1nnc(C2CCCC2)s1 | 14.1
22 | COc1cccc(C(=O)COC(=O)CCCC(=O)NC2CCCCC2)c1 | 10.6
23 | COc1ccc(C(=O)NCCn2cc(SCC(=O)NCC3CCCO3)c3ccccc32)cc1 (centres unmarked) | -0.032

Row | Structure (SMILES) | hERG current change (%, negative = inhibition) at 1uM [%]
24 | CSc1ccc(C2NC(=O)c3ccccc3N2)cc1 (centres unmarked) | 10.4
25 | Cc1ccc2cc(CCNC(=O)c3cccs3)c(=O)[nH]c2c1C | 5.96
26 | CCOC(=O)c1nnn2c1nc(N1CCOCC1)c1ccccc12 | 10.7
27 | Br.CCn1c(=N)n(CC(=O)c2ccc(Br)s2)c2ccccc21 | -22
28 | Cc1cccc(-n2c(-c3ccncc3)n[nH]c2=S)c1 | 12.4
29 | OCCN1CCN(Cc2ccc3ccccc3c2)CC1 | 12.5
30 | C=CCn1c(SCc2ccc(C(=O)O)cc2)nc2sc(C)c(C)c2c1=O | 9.58
31 | CCN(CC)S(=O)(=O)c1ccc(S(=O)(=O)N2CCC(C(=O)NC3CCN(Cc4ccccc4)CC3)CC2)cc1 | 17.5
32 | Cc1ccc2oc(=O)c3cnn(CC(=O)NC4CCC(C)CC4)c3c2c1 (centres unmarked) | 4.33
33 | CCOC(=O)C1=NN(C(=O)c2ccco2)C2(CC2)C1 | 5.08
34 | CCCCN(CCCNC(=O)c1ccc(CS(=O)(=O)c2c(Cl)cccc2Cl)o1)Cc1ccccc1 | -30.5
35 | O=C(Nc1ccc2c(c1)OCO2)C1CC(c2ccccc2O)=NO1 (centres unmarked) | 12.9
36 | CSc1nc2ccc3nc(NC(=O)c4ccc(Cl)s4)sc3c2s1 | 8.38
37 | Cc1cccc(NC(=O)CSc2nnc(NC(=O)c3ccco3)s2)c1 | 10.7
38 | COc1cccc(NC(=O)N(CCCN2CCOCC2)C(C)c2cc3ccccc3o2)c1 (centres unmarked) | -33.4
39 | O=C(Cc1c[nH]c2ccccc12)NC1(C(=O)NC2CCCC2)CCCCC1 | 14.1
40 | CC(C)c1nnc(-c2ccc(Cl)cc2)c(N(C)C)n1 | 9.61
41 | Cc1cc(C(=O)COC(=O)c2ccc[nH]c2=O)c(C)n1C | 9.62
42 | CC(C)c1ccccc1NC(=S)NCc1ccncc1 | 10.9
43 | COc1cc2c(cc1OC)CN(C(=O)CSc1nnc3scc(-c4ccccc4)n13)CC2 | 5.24
44 | COc1ccccc1CNS(=O)(=O)c1cc(C)ccc1OC | 12.8
45 | C=CCS/C(=N\n1cnc2ccccc2c1=O)N(CC)CC | 14.2
46 | CC1Cc2ccccc2N1C(=O)C1CCN(S(=O)(=O)c2cccs2)CC1 (centres unmarked) | 4.23

Row | Structure (SMILES) | hERG current change (%, negative = inhibition) at 1uM [%]
47 | CCN1C(=NCCN2CCOCC2)N[C@@H](c2ccccc2)C(C(=O)OC)=C1C | 12.2
48 | CCn1c(COC(=O)CNC(=O)c2cc(OC)c(OC)c(OC)c2)nc2cc(S(=O)(=O)N(C)C)ccc21 | 6.22
49 | O=C(O)CCCC(=O)N1CCN(c2nc(-c3ccccc3Cl)c3cc(Br)ccc3n2)CC1 | 6.08
50 | O=C(CNC(=O)c1cccs1)N/N=C/c1ccco1 | 16.5
51 | COc1cc(N=C(N)N=C(N)N)cc(OC)c1 | 11.1
52 | Cc1ccc2c(N)[nH]nc2n1 | 16.8
53 | COc1ccc(OC)c(N2CC(O)=C(c3nc4ccccc4s3)C2=N)c1 | 1.8
54 | Cc1nnc(NC(=O)c2ccc(Br)cc2)s1 | 12
55 | Cc1cc(C(F)(F)F)nn1CC(=O)NCc1cccs1 | 11.8
56 | CCc1cccc(NC(=O)COC(=O)/C=C/c2cccs2)c1 | 11.6
57 | CC(C)OCC(O)Cn1c(N2CCCC2)nc2c1c(=O)[nH]c(=O)n2C (centres unmarked) | 13.8
58 | CCN(C(=O)CSc1nnc(C)n1-c1cccc(C)c1)C1CCS(=O)(=O)C1 (centres unmarked) | 2.88
59 | c1ccc2c(c1)nc(N1CCOCC1)c1ccccc12 | 4.22
60 | O=S(=O)(Nc1ccc(N2CCOCC2)cc1)c1ccc(Cl)s1 | 8.98
61 | NS(=O)(=O)c1ccc(NC(=O)/C=C/c2ccccc2[N+](=O)[O-])cc1 | 8.51
62 | CC(=O)c1cccc(Nc2nc(-c3ccccc3)nc3ccccc23)c1.Cl | 10.1
63 | Cc1ccc2c(c1)N(CC(=O)NC(C)CCc1ccccc1)C(=O)c1cccnc1O2 (centres unmarked) | -8.28
64 | CCOc1ccc(-n2c(Cc3cc(=O)[nH]c(=O)[nH]3)nnc2SCC(=O)OC)cc1 | 8.93
65 | COc1ccc(NC(=O)c2ccc(N3C(=O)C4CC=C(Cl)CC4C3=O)cc2)cc1 (centres unmarked) | 18
66 | Cc1ccc(Oc2nnc(-c3cccs3)c3ccccc23)cc1 | -0.176
67 | COc1ccccc1NC(=O)Nc1ccnn1C1CCN(C(=O)c2cscn2)CC1 | 8.26
68 | CC(C)COc1ccc(S(=O)(=O)NNC(=O)c2cc3ccccc3o2)cc1 | -5.87
69 | Cc1cc(NC(=O)CSc2nnc(-c3cccnc3)n2C2CCCCC2C)no1 (centres unmarked) | 14.2

Row | Structure (SMILES) | hERG current change (%, negative = inhibition) at 1uM [%]
70 | CCc1ccc(NC(=O)C(CC)c2ccccc2)cc1 (centres unmarked) | 9.84
71 | Oc1ccccc1C1CC(c2cccs2)=NC(c2cccc(Br)c2)N1 (centres unmarked) | 13.6
72 | Cc1cc(C)n(-c2ccc(C(=O)N3CCN(c4ccccn4)CC3)cc2)n1 | 2.43
73 | N#C/C(=C\c1ccc(N2CCOCC2)o1)C(=O)N1CCOCC1 | -1.16
74 | COc1ccc(OCC(=O)Nc2ccc(S(=O)(=O)N3CCCCC3)cc2)cc1 | -16
75 | COc1cc(NC(C)=O)c2ncccc2c1NC(C)=O | 10.3
76 | Cc1ccc(Cl)c2c1NC(=O)C2(O)CC(=O)c1ccccc1O (centres unmarked) | 10.8
77 | Cc1cc(NC(=O)CCN2CCCCC2)ccc1Br | 1.26
78 | O=C(N/N=C/c1c[nH]c2ccccc12)c1sc2ccccc2c1Cl | 7.74
79 | CC1CCCCC1NC(=O)C1CCN(C(=O)c2sccc2-n2cccc2)CC1 (centres unmarked) | -0.621
80 | CN(C)c1ccc(/C=N/NC(=S)NCc2ccccc2)cc1 | -1.32
81 | COC(=O)c1ccc(NC(c2ccc(Cl)cc2)P(=O)(OC)OC)cc1 (centres unmarked) | 3.71
82 | CCc1ccc(CCC(=O)Nc2nnc(CC)s2)o1 | 6.1
83 | COC(=O)c1ccc(C(C(=O)NC2CCCCC2)N(Cc2ccc(F)cc2)C(=O)Cc2cccs2)cc1 (centres unmarked) | 11
84 | CCN(C(=O)COC(=O)c1c(C)c(-c2ccccc2)nc2ccccc12)C1CCS(=O)(=O)C1 (centres unmarked) | 6.71
85 | O=C(NCCNC(=O)c1ccc(Cl)cc1Cl)c1ccccn1 | 10.8
86 | O=C(O)c1ccc(-c2nnn(Cc3cccc(C(F)(F)F)c3)n2)cc1 | 4.83
87 | Cc1ccc(S(=O)(=O)NCC(=O)N(CC(=O)NCC2CCCO2)Cc2ccccc2)cc1 (centres unmarked) | -1.01
88 | CN1C(C(=O)Nc2ccc(F)cc2F)=CC(c2cccs2)=NS1(=O)=O | 11.6
89 | O=C(NC(NC1CCS(=O)(=O)C1)C(Cl)(Cl)Cl)c1ccc(Br)cc1 (centres unmarked) | -10.3
